# Among all 310,000 compounds or so, about 14,000 (4.5%) showed an effect of 50% or more. Effects have a minus sign here. This is one part of the list.
# Target: human ether-à-go-go-related gene (hERG) potassium channel (human, UniProt Q12809)
# Assay: primary screen, population patch clamp on CHO cells stably expressing hERG
# 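Also: peak tail current of the secondary pulse compared with the same well before compound.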
# human ether-à-go-go-related gene (hERG) potassium channel, sequence (Q12809 whole entry, looked up): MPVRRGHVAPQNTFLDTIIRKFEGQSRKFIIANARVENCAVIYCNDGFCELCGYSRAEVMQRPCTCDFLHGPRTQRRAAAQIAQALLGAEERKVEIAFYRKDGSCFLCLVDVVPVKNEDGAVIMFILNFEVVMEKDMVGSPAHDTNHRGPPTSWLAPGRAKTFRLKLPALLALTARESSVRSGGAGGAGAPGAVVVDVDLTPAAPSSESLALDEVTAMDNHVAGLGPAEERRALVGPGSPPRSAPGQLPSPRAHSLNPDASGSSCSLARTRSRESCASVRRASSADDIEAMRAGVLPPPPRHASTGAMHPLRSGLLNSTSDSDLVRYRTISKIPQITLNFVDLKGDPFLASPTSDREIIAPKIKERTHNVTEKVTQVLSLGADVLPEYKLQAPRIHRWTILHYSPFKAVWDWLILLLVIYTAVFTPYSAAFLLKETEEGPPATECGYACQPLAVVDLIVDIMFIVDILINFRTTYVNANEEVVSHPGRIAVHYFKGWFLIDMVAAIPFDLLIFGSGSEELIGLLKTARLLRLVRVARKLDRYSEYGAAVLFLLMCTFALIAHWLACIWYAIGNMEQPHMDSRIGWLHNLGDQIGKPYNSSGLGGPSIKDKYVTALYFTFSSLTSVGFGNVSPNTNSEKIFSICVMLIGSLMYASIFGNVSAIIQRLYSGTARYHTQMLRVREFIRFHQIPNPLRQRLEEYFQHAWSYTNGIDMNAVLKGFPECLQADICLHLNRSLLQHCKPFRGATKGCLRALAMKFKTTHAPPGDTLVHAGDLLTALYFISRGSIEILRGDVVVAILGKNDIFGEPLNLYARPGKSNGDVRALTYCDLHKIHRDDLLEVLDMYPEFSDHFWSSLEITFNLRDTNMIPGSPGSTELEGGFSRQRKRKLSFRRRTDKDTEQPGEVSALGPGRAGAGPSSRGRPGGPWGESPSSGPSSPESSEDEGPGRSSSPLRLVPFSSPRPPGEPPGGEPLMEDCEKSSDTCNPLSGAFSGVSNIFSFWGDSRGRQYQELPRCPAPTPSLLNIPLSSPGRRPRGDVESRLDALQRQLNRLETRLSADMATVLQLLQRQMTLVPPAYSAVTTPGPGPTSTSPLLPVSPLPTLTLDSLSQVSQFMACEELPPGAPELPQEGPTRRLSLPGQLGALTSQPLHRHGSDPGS
row,SMILES,"hERG current change (%, negative = inhibition) at 10uM [%]"
1,CCOc1ccc(/C=C(\C#N)C(=O)c2c(C)[nH]c3ccccc23)cc1OC,-4.5
2,CC(C)n1cnc2c(NCc3ccccc3)cc(Cc3ccc(F)cc3)cc21,14.5
3,O=S(=O)(c1ccccc1)C1(C2CC(c3ccccc3)=NO2)CC(O)C1 (stereo not shown),-35.1
4,CC1CCN(c2ccc(C(=O)NCc3ccc4c(c3)OCO4)cc2[N+](=O)[O-])CC1,-9.79
5,CCn1c(NCc2cc(OC)ccc2OC)nc2ccccc21,-22.8
6,Fc1c(F)c(F)c(/C=N/NC(=S)Nc2cccnc2)c(F)c1F,11.6
7,O=C(N/N=C/c1ccncc1)NC1CCCCC1,20.1
8,CC(C)CN(CC(C)C)S(=O)(=O)N1CCC(C(=O)NCc2ccccn2)CC1,-4.86
9,Fc1ccc(CNC(=S)Nc2cccc(C(F)(F)F)c2)cc1,0.46
10,CCS(=O)(=O)N1CCC(C(=O)Nc2ccccc2OC)CC1,19.6
11,CCOc1ccc(N=C(NC#N)SCC(=O)NC2CC2)cc1,-8.23
12,CC1CCCC(C)N1C(=O)Cn1nnc(-c2ccccc2)n1 (stereo not shown),14.7
13,COC(=O)C(Cc1ccccc1)NC(=O)c1ccc(C)cc1 (stereo not shown),5.08
14,CC(NC1c2ccccc2-c2ccccc21)c1ccccc1 (stereo not shown),9.54
15,COc1ccc(OCC(=O)Nc2ccc(NC(=O)c3cccs3)c(OC)c2)cc1,-21.5
16,NS(=O)(=O)c1ccc(NC(=S)NC(=O)C2CCCC2)cc1,-7.76
17,O=C(CCc1nc2ccccc2s1)OCC(=O)N1CCN(C(=O)c2ccco2)CC1,-25.6
18,O=C(COc1ccc(F)cc1)Nc1cc(Cl)ccc1-n1cncn1,-8.31
19,Cc1ccnc(NC(=O)c2cc(S(=O)(=O)N3CCCCC3)ccc2Cl)c1,-7.56
20,O=C(COC(=O)c1ccncc1)NCc1ccccc1,3.58
21,CCOc1ccc(NC(=O)c2cc3c(=O)n(C)c4ccccc4c3n2C)cc1,-2.87
22,COc1ccc(CNC(=O)[C@@H](NC(=O)C2CCN(C(=O)[C@@H]3CCCN3C(=O)OC(C)(C)C)CC2)C(C)C)cc1,-9.4

row,SMILES,"hERG current change (%, negative = inhibition) at 10uM [%]"
1,CCCCNC(=O)c1cn(CC)c2cc(N3CCN(C)CC3)c(F)cc2c1=O,-0.449
2,COc1ccc(NC(=O)c2ccc(NC(=O)CSc3nccc(=O)[nH]3)cc2)cc1,15.4
3,Cc1ccc(C(=O)OCC(=O)N2CCCCCC2)c(O)c1,5.38
4,CC(C)(C)c1ccc(C(=O)c2c[nH]c(C(=O)NCC3CCCO3)c2)cc1 (stereo not shown),-1.01
5,CCOc1ccc(CNC(=O)c2ccco2)cc1,6.48
6,CCCc1nc2sc3c(c2c(=O)n1NC(=O)CCC(=O)O)CCCC3,-4.76
7,COc1ccc(OC)c(C2NC(=O)NC(C)=C2C(=O)OCc2ccccc2)c1 (stereo not shown),1.62
8,COc1ccccc1CCNC(=O)C(=O)NCC1CCCN1S(=O)(=O)c1ccccc1 (stereo not shown),-48.6
9,Cl.N=C(N=C(N)N)N1CCOCC1,4.14
10,CSc1nc(-c2ccccc2)nn1C(=O)c1ccccc1,16.6
11,Cc1ncoc1C(=O)N1CCCC(C(=O)c2ccc(Oc3ccccc3)cc2)C1 (stereo not shown),-45
12,O=C(NNC(=S)Nc1ccc(Br)cc1Cl)c1ccco1,23.9
13,Cc1noc(NS(=O)(=O)c2ccc(NC(=O)CCC3CCCC3)cc2)c1C,-1.22
14,CCCCC(=O)NC(=S)Nc1nnn(CCC)n1,9.55
15,CC1(c2ccccc2)NC(=O)N(NC(=O)COC(=O)c2cc(Br)ccc2O)C1=O (stereo not shown),-5.01
16,Cc1c(NC(=O)C(C)OC(=O)COc2ccccc2)c(=O)n(-c2ccccc2)n1C (stereo not shown),14.9
17,Cc1cc(Br)ccc1OCC(=O)N(Cc1nc(-c2ccccc2)no1)C(C)C,-11.4
18,NC(=O)C1=C[C@@H](c2ccc(Br)cc2)C[C@@H](OCc2ccc(CO)cc2)O1,-25
19,Cc1cc(=O)[nH]c(N/N=C/c2ccc(Cl)c([N+](=O)[O-])c2)n1,-16.5
20,Cc1cc(-c2ccccc2)n2ncc(-c3ccccc3)c2n1,4.32
21,O=C(Nc1ccc(Cl)cc1)c1cc2c(cc1O)[nH]c1ccccc12,21

# — article PMC4336329 (PLoS ONE, 2015)
